# Laboratory results published in patent publication US20220348661A1 (HARBOUR BIOMED SHANGHAI, published 2022).
# Biological target: T1, human CD3 (human, UniProt P07766; P09693; P04234; P20963)
# T1 construct: whole, on cells; SP34 is described as an anti-human CD3e antibody; also called human TCR/CD3 complex; CD3 on human pan-T cells
# Assay: flow cytometry on human pan-T cells, scFv-Fc; MFI at 7.4 or 10 µg/ml relative to PR000260
# Source text: The flow cytometryFACS was used to analyse the binding of the CD3 antibody to CD3-expressing cells, where the CD3-expressing cells could be: CHOK1 cells overexpressing human CD3 or HEK 293 cells (plasmids encoding the ORF of γ, δ, ε, and ζ chains of human-derived CD3 and plasmids encoding the ORF of α and β chains of human TCR were co-transfected with host cells CHOK1 (ATCC, CCL-61) or HEK293 (ATCC, CRL-1573) to construct stable cell lines expressing the structure of the human TCR/CD3 complex); CHOK1 or HEK293 cells overexpressing cynomolgus monkey CD3; human pan-T cells (isolated with the human pan-T cell isolation kit (Miltenyi, #130-096-535) from PBMC); cynomolgus monkey pan-T cells. […] The fluorescent luminescence signal value were read by flow cytometry (BD FACS CANTOII or ACEA NovoCyte), and the resulted data were processed and analyzed by software FlowJo v10 (FlowJo, LLC). […]
# FIGS. 8(A) and (B) show the binding capacity of the anti-CD3 scFv-Fc single chain antibody obtained in the Example 4.3 to human pan-T cells The fluorescence intensity MFI of the CD3 antibody binding to human pan-T cells and the relative ratio relative to the initial antibody PR000260 were calculated when the antibody concentration was 7.4 or 10 μg/ml.
# T1 sequence (P07766 23-207, chain 1 of 4): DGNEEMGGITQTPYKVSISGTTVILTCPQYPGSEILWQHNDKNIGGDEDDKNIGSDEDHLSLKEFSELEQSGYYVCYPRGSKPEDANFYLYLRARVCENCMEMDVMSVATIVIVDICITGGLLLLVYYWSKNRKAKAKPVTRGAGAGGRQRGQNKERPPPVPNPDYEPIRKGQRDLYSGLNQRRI
# T1 sequence (P09693 23-182, chain 2 of 4, further chain): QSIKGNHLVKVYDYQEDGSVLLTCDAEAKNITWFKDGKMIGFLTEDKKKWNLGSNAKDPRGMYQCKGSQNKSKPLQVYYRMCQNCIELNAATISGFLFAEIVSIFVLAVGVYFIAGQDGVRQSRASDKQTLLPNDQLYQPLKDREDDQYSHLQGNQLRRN
# T1 sequence (P04234 22-171, chain 3 of 4, further chain): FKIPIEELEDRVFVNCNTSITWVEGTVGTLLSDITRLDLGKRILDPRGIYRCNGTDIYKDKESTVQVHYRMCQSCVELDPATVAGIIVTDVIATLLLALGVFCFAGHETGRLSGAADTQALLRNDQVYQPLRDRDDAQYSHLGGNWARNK
# T1 sequence (P20963 22-164, chain 4 of 4, further chain): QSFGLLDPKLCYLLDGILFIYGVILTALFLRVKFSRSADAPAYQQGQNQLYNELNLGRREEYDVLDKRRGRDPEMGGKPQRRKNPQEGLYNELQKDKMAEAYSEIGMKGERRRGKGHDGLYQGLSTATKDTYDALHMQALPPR
binder,measurement,value
"PR000624 (scFv, also called anti-CD3 scFv-Fc antibody PR000624) scFv: EVQLVESGGGLVQPGGSLKLSCAASGFTFNTYAMNWVRQASGKGLEWVGRIRSKYNNYATYYADSVKDRFTISRDDSKSTLYLQMNSLKTEDTAVYYCVRHGNFGNSYVSWFAYWGQGTLVTVSSGGGQSGQGGSGGGGSDAQMTQSPSSLSASVGDRVTITCRSSTGAVTTSNYANWVQQKPGKAPKGLIGGTNKRAPGVPSRFSGSLSGDDATLTISSLQPEDFATYFCALWYSNLWVFGGGTKVEIKAS[human IgG1 Fc with changes not written out]",binding result,binds
